For this assay, the system named is MLKL phosphorylation, HT29-L23 human colorectal adenocarcinoma cells. Put plainly: cells. Particulars: read-out: pMLKL HCS Cell Assay (IC50, uM).
With `Nc1ncnn2c(-c3ccc(CF)c(C(=O)N[C@@H]4CN(C(=O)C5CC(F)C5)C[C@@H]4F)c3)cc(C(F)(F)F)c12` (stereo partly drawn) [Example 923, 5-[4-amino-5-(trifluoromethyl)pyrrolo[2,1-f][1,2,4]triazin-7-yl]-N-[(3R,4S)-4-fluoro-1-(3-fluorocyclobutanecarbonyl)pyrrolidin-3-yl]-2-(fluoromethyl)benzamide], the IC50 came to 0.0053 µM.

`Cc1cc(F)c(-c2cc(C(F)(F)F)c3c(N)ncnn23)cc1C(=O)N[C@@H]1CN(C(=O)C(C)(C)C)C[C@@H]1F` [Example 795, 5-[4-amino-5-(trifluoromethyl)pyrrolo[2,1-f][1,2,4]triazin-7-yl]-N-[(3R,4S)-1-(2,2-dimethylpropanoyl)-4-fluoropyrrolidin-3-yl]-4-fluoro-2-methylbenzamide]: the IC50 was 0.0037 µM.

Consider `COc1ncc(-c2cc(C(F)(F)F)c3c(N)ncnn23)cc1C(=O)NC1CN(Cc2cc(C)on2)CC1F` (racemic) [Example 242, 5-[4-amino-5-(trifluoromethyl)pyrrolo[2,1-f][1,2,4]triazin-7-yl]-N-{4-fluoro-1-[(5-methyl-1,2-oxazol-3-yl)methyl]pyrrolidin-3-yl}-2-methoxypyridine-3-carboxamide], for which the half-inhibitory concentration (IC50) was found to be 0.032 µM.

In the case of `Cc1cc(C(=O)N2C[C@H](F)[C@H](NC(=O)c3cc(-c4cc(C(F)(F)F)c5c(N)ncnn45)ccc3C)C2)c(F)cn1` [Example 1042, 5-[4-amino-5-(trifluoromethyl)pyrrolo[2,1-f][1,2,4]triazin-7-yl]-N-[(3R,4S)-4-fluoro-1-(5-fluoro-2-methylpyridine-4-carbonyl)pyrrolidin-3-yl]-2-methylbenzamide], the IC50 amounted to 0.0029 µM.

As for `COc1ccc(-c2cc(C(F)(F)F)c3c(N)ncnn23)cc1C(=O)N[C@@H]1CN(C(=O)c2ccccc2F)C[C@@H]1F` [Example 1124, 5-[4-amino-5-(trifluoromethyl)pyrrolo[2,1-f][1,2,4]triazin-7-yl]-N-[(3R,4S)-4-fluoro-1-(2-fluorobenzoyl)pyrrolidin-3-yl]-2-methoxybenzamide], the IC50 was 0.0055 µM.

For the compound `COC(C(C)C(F)(F)F)C(C)(O)CNC(=O)c1cc(-c2cc(C(F)(F)F)c3c(N)ncnn23)cnc1C` (centres unmarked) [Example 1755, 5-(4-amino-5-(trifluoromethyl)pyrrolo[2,1-f][1,2,4]triazin-7-yl)-2-methyl-N-(5,5,5-trifluoro-2-hydroxy-3-methoxy-2,4-dimethylpentyl)nicotinamide], the IC50 was 0.197 µM.

In the case of `Cc1cc(-c2cc(C(F)(F)F)c3c(N)ncnn23)cc(C(=O)N[C@@H]2CN(C(=O)CC(C)C)C[C@@H]2F)c1Cl` [Example 716, 5-[4-amino-5-(trifluoromethyl)pyrrolo[2,1-f][1,2,4]triazin-7-yl]-2-chloro-N-[(3R,4S)-4-fluoro-1-(3-methylbutanoyl)pyrrolidin-3-yl]-3-methylbenzamide], the IC50 was 0.0087 µM.

Turning to `COc1ncc(-c2cc(CN3CCC(F)(F)CC3)c3c(N)ncnn23)cc1C(=O)NC1CN(C(=O)CC(O)(C(F)(F)F)C(F)(F)F)CCC1F` (centres unmarked) [Example 1665, 5-{4-amino-5-[(4,4-difluoropiperidin-1-yl)methyl]pyrrolo[2,1-f][1,2,4]triazin-7-yl}-N-{4-fluoro-1-[4,4,4-trifluoro-3-hydroxy-3-(trifluoromethyl)butanoyl]piperidin-3-yl}-2-methoxypyridine-3-carboxamide], the IC50 was determined as 0.033 µM.

For `Cc1cc(-c2cc(C(F)(F)F)c3c(N)ncnn23)cc(C(=O)N[C@@H]2CN(C(=O)C(C)C(F)(F)F)C[C@@H]2F)c1Cl` (stereo partly drawn) [Example 718, 5-[4-amino-5-(trifluoromethyl)pyrrolo[2,1-f][1,2,4]triazin-7-yl]-2-chloro-N-[(3R,4S)-4-fluoro-1-(3,3,3-trifluoro-2-methylpropanoyl)pyrrolidin-3-yl]-3-methylbenzamide], the IC50 is 0.0073 µM.

Turning to `Nc1ncnn2c(-c3cccc(C(=O)N[C@@H]4CN(C(=O)c5ccccc5F)C[C@@H]4F)c3)cc(C(F)(F)F)c12` [Example 91, 3-[4-amino-5-(trifluoromethyl)pyrrolo[2,1-f][1,2,4]triazin-7-yl]-N-[(3R,4S)-4-fluoro-1-(2-fluorobenzoyl)pyrrolidin-3-yl]benzamide], the IC50 is 0.009 µM.

Regarding `COc1ncc(-c2cc(C(F)(F)F)c3c(N)ncnn23)cc1C(=O)N[C@@H]1CN(C(=O)CC2CC2)C[C@@H]1F` [Example 1206, 5-[4-amino-5-(trifluoromethyl)pyrrolo[2,1-f][1,2,4]triazin-7-yl]-N-[(3R,4S)-1-(2-cyclopropylacetyl)-4-fluoropyrrolidin-3-yl]-2-methoxypyridine-3-carboxamide], the IC50 came to 0.04 µM.

As for `Cc1cc(F)c(-c2cc(C(F)(F)F)c3c(N)ncnn23)cc1C(=O)N[C@@H]1CN(C(=O)C2(O)CCC2)C[C@@H]1F` [Example 804, 5-[4-amino-5-(trifluoromethyl)pyrrolo[2,1-f][1,2,4]triazin-7-yl]-4-fluoro-N-[(3R,4S)-4-fluoro-1-(1-hydroxycyclobutanecarbonyl)pyrrolidin-3-yl]-2-methylbenzamide], the IC50 amounted to 0.0049 µM.

For `Cc1cc(F)c(-c2cc(C(F)(F)F)c3c(N)ncnn23)cc1C(=O)N[C@@H]1CN(C(=O)CC(O)(C(F)(F)F)C(F)(F)F)C[C@@H]1F` [Example 802, 5-[4-amino-5-(trifluoromethyl)pyrrolo[2,1-f][1,2,4]triazin-7-yl]-4-fluoro-N-[(3R,4S)-4-fluoro-1-[4,4,4-trifluoro-3-hydroxy-3-(trifluoromethyl)butanoyl]pyrrolidin-3-yl]-2-methylbenzamide], the IC50 was determined as 0.014 µM.

With `Nc1ncnn2c(-c3cc(F)cc(C(=O)N[C@@H]4CN(C(=O)C5CC5(F)F)C[C@@H]4F)c3)cc(C(F)(F)F)c12` (stereo partly drawn) [Example 608, 3-[4-amino-5-(trifluoromethyl)pyrrolo[2,1-f][1,2,4]triazin-7-yl]-N-[(3R,4S)-1-(2,2-difluorocyclopropanecarbonyl)-4-fluoropyrrolidin-3-yl]-5-fluorobenzamide], the IC50 turned out to be 0.017 µM.

Regarding `COc1ncc(-c2cc(C(F)(F)F)c3c(N)ncnn23)cc1C(=O)N[C@@H]1CN(C(=O)CC2CC2(F)F)C[C@@H]1F` (stereo partly drawn) [Example 1205, 5-[4-amino-5-(trifluoromethyl)pyrrolo[2,1-f][1,2,4]triazin-7-yl]-N-[(3R,4S)-1-[2-(2,2-difluorocyclopropyl)acetyl]-4-fluoropyrrolidin-3-yl]-2-methoxypyridine-3-carboxamide], the IC50 amounted to 0.046 µM.

Consider `COc1ncc(-c2cc(C(F)(F)F)c3c(N)ncnn23)cc1C(=O)NCCC(C)(O)c1ccc(Cl)cc1` (centres unmarked) [Example 145, 5-[4-amino-5-(trifluoromethyl)pyrrolo[2,1-f][1,2,4]triazin-7-yl]-N-[3-(4-chlorophenyl)-3-hydroxybutyl]-2-methoxypyridine-3-carboxamide], for which the IC50 came out at 0.153 µM.

On to `CCc1ccc(-c2cc(C(F)(F)F)c3c(N)ncnn23)cc1C(=O)N[C@@H]1CN(C(=O)C2CCC(F)(F)C2)C[C@@H]1F` (stereo partly drawn) [Example 974, 5-[4-amino-5-(trifluoromethyl)pyrrolo[2,1-f][1,2,4]triazin-7-yl]-N-[(3R,4S)-1-(3,3-difluorocyclopentanecarbonyl)-4-fluoropyrrolidin-3-yl]-2-ethylbenzamide], for which the IC50 stood at 0.0074 µM.

In general, IC50 refers to the concentration that inhibits the measured activity by half.

Values taken from patent US11618753B2 (priority 2018, dated 2023).
